# In PMC12820563:
# Some of the results follow. The list includes weakly bound sequences.
# Molecular target: T1, MBP-FoxP3dN (UniProt Q99JB6)
# T1 sequence: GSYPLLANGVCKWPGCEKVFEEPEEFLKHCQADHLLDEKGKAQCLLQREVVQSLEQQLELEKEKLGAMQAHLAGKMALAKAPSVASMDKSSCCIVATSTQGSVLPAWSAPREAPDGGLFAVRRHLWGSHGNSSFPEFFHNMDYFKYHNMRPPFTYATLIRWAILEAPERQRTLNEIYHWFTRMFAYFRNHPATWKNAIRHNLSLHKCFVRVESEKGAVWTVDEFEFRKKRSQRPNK
# Test: PD-seq (MBP pull-down with sequencing)
# Conditions: 20 mM Tris-HCl pH 7.5, 100 mM NaCl, 1.5 mM MgCl2, 0.4 uM protein, 0.1 uM dsDNA library, 30 min, room temperature, amylose pull-down; high values mean tight binding; double strand, one strand shown
row,Sequence,binding signal (RPM ratio (pull-down/input))
1,GATGATTGTTCTCCCAGCTGATGAATTGCCGATCTCGAGTAAACAAATTTTCCTAATCTTTCTGTTCAAGCGCCATCTAC,0.528
2,GATGATTGTTCTCCCAGCTGATGAATTTATTCCTTCGAGTAAACAAATTTTCCTAATCTTTCTGTTCAAGCGCCATCTAC,0.63
3,GATGATTGTTCTCCCAGCTGATGAATTTTAGCGTTCGAGTAAACAAATTTTCCTAATCTTTCTGTTCAAGCGCCATCTAC,1.49
4,GATGATTGTTCTCCCAGCTGATGAATTCTATCCTTCGAGTAAACAAATTTTCCTAATCTTTCTGTTCAAGCGCCATCTAC,0.391
5,GATGATTGTTCTCCCAGCTGATGAATTCGATGCGTCGAGTAAACAAATTTTCCTAATCTTTCTGTTCAAGCGCCATCTAC,1.84
6,GATGATTGTTCTCCCAGCTGATGAATTTATCGCTTCGAGTAAACAAATTTTCCTAATCTTTCTGTTCAAGCGCCATCTAC,1.15
7,GATGATTGTTCTCCCAGCTGATGAATTCTACGTCTCGAGTAAACAAATTTTCCTAATCTTTCTGTTCAAGCGCCATCTAC,0.387
8,GATGATTGTTCTCCCAGCTGATGAATTCTATGGTTCGAGTAAACAAATTTTCCTAATCTTTCTGTTCAAGCGCCATCTAC,1.16
9,GATGATTGTTCTCCCAGCTGATGAATTGGAGCTTTCGAGTAAACAAATTTTCCTAATCTTTCTGTTCAAGCGCCATCTAC,0.738
10,GATGATTGTTCTCCCAGCTGATGAATTGTCGGAGTCGAGTAAACAAATTTTCCTAATCTTTCTGTTCAAGCGCCATCTAC,0.253
11,GATGATTGTTCTCCCAGCTGATGAATTGCATTTCTCGAGTAAACAAATTTTCCTAATCTTTCTGTTCAAGCGCCATCTAC,2.75
12,GATGATTGTTCTCCCAGCTGATGAATTGTGGAGGTCGAGTAAACAAATTTTCCTAATCTTTCTGTTCAAGCGCCATCTAC,0.312
13,GATGATTGTTCTCCCAGCTGATGAATTGGACGCGTCGAGTAAACAAATTTTCCTAATCTTTCTGTTCAAGCGCCATCTAC,0.629
14,GATGATTGTTCTCCCAGCTGATGAATTGTGGCGTTCGAGTAAACAAATTTTCCTAATCTTTCTGTTCAAGCGCCATCTAC,2.54
15,GATGATTGTTCTCCCAGCTGATGAATTGACGGCGTCGAGTAAACAAATTTTCCTAATCTTTCTGTTCAAGCGCCATCTAC,0.508
16,GATGATTGTTCTCCCAGCTGATGAATTATCACACTCGAGTAAACAAATTTTCCTAATCTTTCTGTTCAAGCGCCATCTAC,0.454
17,GATGATTGTTCTCCCAGCTGATGAATTAATGCCGTCGAGTAAACAAATTTTCCTAATCTTTCTGTTCAAGCGCCATCTAC,1.5
18,GATGATTGTTCTCCCAGCTGATGAATTGCTACACTCGAGTAAACAAATTTTCCTAATCTTTCTGTTCAAGCGCCATCTAC,0.867
19,GATGATTGTTCTCCCAGCTGATGAATTCCCTCTCTCGAGTAAACAAATTTTCCTAATCTTTCTGTTCAAGCGCCATCTAC,0.275
20,GATGATTGTTCTCCCAGCTGATGAATTCCAACGCTCGAGTAAACAAATTTTCCTAATCTTTCTGTTCAAGCGCCATCTAC,0.274

row,Sequence,binding signal (RPM ratio (pull-down/input))
1,GATGATTGTTCTCCCAGCTGATGAATTCGCTCAGTCGAGTAAACAAATTTTCCTAATCTTTCTGTTCAAGCGCCATCTAC,0.239
2,GATGATTGTTCTCCCAGCTGATGAATTCAATGGATCGAGTAAACAAATTTTCCTAATCTTTCTGTTCAAGCGCCATCTAC,0.339
3,GATGATTGTTCTCCCAGCTGATGAATTACGGATCTCGAGTAAACAAATTTTCCTAATCTTTCTGTTCAAGCGCCATCTAC,0.4
4,GATGATTGTTCTCCCAGCTGATGAATTTACGAAGTCGAGTAAACAAATTTTCCTAATCTTTCTGTTCAAGCGCCATCTAC,0.237
5,GATGATTGTTCTCCCAGCTGATGAATTCTATAGCTCGAGTAAACAAATTTTCCTAATCTTTCTGTTCAAGCGCCATCTAC,0.43
6,GATGATTGTTCTCCCAGCTGATGAATTAGAAACTTCGAGTAAACAAATTTTCCTAATCTTTCTGTTCAAGCGCCATCTAC,0.269
7,GATGATTGTTCTCCCAGCTGATGAATTGGCGCGCTCGAGTAAACAAATTTTCCTAATCTTTCTGTTCAAGCGCCATCTAC,0.572
8,GATGATTGTTCTCCCAGCTGATGAATTGGAAGAGTCGAGTAAACAAATTTTCCTAATCTTTCTGTTCAAGCGCCATCTAC,0.198
9,GATGATTGTTCTCCCAGCTGATGAATTCTTGAGGTCGAGTAAACAAATTTTCCTAATCTTTCTGTTCAAGCGCCATCTAC,0.202
10,GATGATTGTTCTCCCAGCTGATGAATTACGGGATTCGAGTAAACAAATTTTCCTAATCTTTCTGTTCAAGCGCCATCTAC,0.408
11,GATGATTGTTCTCCCAGCTGATGAATTCGCATATTCGAGTAAACAAATTTTCCTAATCTTTCTGTTCAAGCGCCATCTAC,0.993
12,GATGATTGTTCTCCCAGCTGATGAATTGCGACATTCGAGTAAACAAATTTTCCTAATCTTTCTGTTCAAGCGCCATCTAC,2.23
13,GATGATTGTTCTCCCAGCTGATGAATTGTGGAACTCGAGTAAACAAATTTTCCTAATCTTTCTGTTCAAGCGCCATCTAC,0.358
14,GATGATTGTTCTCCCAGCTGATGAATTGCCCAATTCGAGTAAACAAATTTTCCTAATCTTTCTGTTCAAGCGCCATCTAC,0.463
15,GATGATTGTTCTCCCAGCTGATGAATTGGACACCTCGAGTAAACAAATTTTCCTAATCTTTCTGTTCAAGCGCCATCTAC,0.398
16,GATGATTGTTCTCCCAGCTGATGAATTACTAAGCTCGAGTAAACAAATTTTCCTAATCTTTCTGTTCAAGCGCCATCTAC,0.286
17,GATGATTGTTCTCCCAGCTGATGAATTGACGTGATCGAGTAAACAAATTTTCCTAATCTTTCTGTTCAAGCGCCATCTAC,0.492
18,GATGATTGTTCTCCCAGCTGATGAATTATATCGGTCGAGTAAACAAATTTTCCTAATCTTTCTGTTCAAGCGCCATCTAC,0.388
19,GATGATTGTTCTCCCAGCTGATGAATTGAAGGAGTCGAGTAAACAAATTTTCCTAATCTTTCTGTTCAAGCGCCATCTAC,0.239
20,GATGATTGTTCTCCCAGCTGATGAATTTTGGAGTTCGAGTAAACAAATTTTCCTAATCTTTCTGTTCAAGCGCCATCTAC,0.442
